Data from the supplement of paper PMC8512760.
The other results are listed elsewhere or left out. Most values come without repeats; read them as rough.

What was measured:
Test in all cases: cell viability relative to vehicle (% of vehicle); basal-like triple-negative breast cancer lines; higher = less cytotoxic
Details in all cases: 10 µM; 72 h
HCC-1143 = tested on: HCC-1143
HCC-1187 = tested on: HCC-1187
MDA-468 = tested on: MDA-468
SUM-149 = tested on: SUM-149
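Note: stably firefly luciferase-GFP labeled cells in 96-well plates, viability read as luciferase photon flux after d-luciferin addition, treated wells normalized to vehicle wells, single-dose high-throughput screen.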

Compound	cell viability (HCC-1143)	cell viability (HCC-1187)	cell viability (MDA-468)	cell viability (SUM-149)
CC(=O)OC1(C(C)=O)CCC2C3C=C(C)C4=CC(=O)CCC4(C)C3CCC21C (stereo not given) [Megestrol Acetate]	81.3	104	109	108
O=C1c2ccccc2C(=O)C1c1ccccc1 [Phenindione]	104	96.1	120	105
CCNC1CC(C)S(=O)(=O)c2sc(S(N)(=O)=O)cc21.Cl (stereo not given) [Dorzolamide HCl]	103	83.6	88.7	92.4
Nc1nc(=O)c2ncn(COCCO)c2[nH]1 [Acyclovir]	81.5	94.2	121	94.8
COCCOC(=O)C1=C(C)NC(C)=C(C(=O)OCC=Cc2ccccc2)C1c1cccc([N+](=O)[O-])c1 (stereo not given) [Cilnidipine]	85.1	86.6	82.7	101
CC(C)(C)c1nc(-c2cccc(NS(=O)(=O)c3c(F)cccc3F)c2F)c(-c2ccnc(N)n2)s1	97.7	115	108	117
C[C@H](C(=O)O)c1ccc(-c2ccccc2)c(F)c1 [(S)-Flurbiprofen]	81.7	96.4	117	91.1
CCCC(CCC)C(=O)O [Valproic acid]	95.4	83.6	133	115
COc1cc2c(cc1OC)C(=O)C(CC1CCN(Cc3ccccc3)CC1)C2.Cl (stereo not given) [Donepezil HCl]	112	108	100	123
COc1cc(OC)c(C=CS(=O)(=O)Cc2ccc(OC)c(NCC(=O)[O-])c2)c(OC)c1.[Na+]	48.7	35.4	55.5	101
